{
  "source": "the supplement of paper PMC11417369",
  "note": "± gives the standard deviation of the averaged measurements. Some of the results follow.",
  "data": [
    {"system": "PfAP2-LT AP2 domain (GST-tagged)", "experiment": "gcPBM binding intensity (ln(normalized median fluorescence intensity)); higher = stronger DNA binding", "outline": "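Binding intensity values are the highest Masliner-normalised natural-log median intensity among replicate spots of either probe orientation. The binding step lasted 1 h in 1× PBS with 1% milk, 0.2 mg/ml BSA, 0.5% salmon testes DNA and 0.03% Triton X-100, using GST-tagged P. falciparum DNA-binding domains expressed in E. coli on an Agilent 4 × 180k array of primer-extended double-stranded 36-bp intergenic genomic probes plus negative controls. Alexa488 anti-GST antibody and a 488 nm scan detected bound protein.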", "values": [
      {"sequence": "ATATATTGAAAATATAGTACATAATAAATGTTCTTT [XGTACX_site8474]", "gcPBM binding intensity (ln)": "8.56 ± 0.4"},
      {"sequence": "TTTTTTTTTTTTTTTTTTTTTTTTTTTTTTTGGGGG [CACACA_negctrl_site1570]", "gcPBM binding intensity (ln)": "9.26 ± 0.31"},
      {"sequence": "AATGTAGTTTATCGATGTACACAAAATAAAGAGAAG [XGTACX_site6956]", "gcPBM binding intensity (ln)": "9.03 ± 0.43"},
      {"sequence": "CCGTACAATTTTGTCACACATAAAATACTTATGTAT [CACACA_site4871]", "gcPBM binding intensity (ln)": "8.71 ± 0.42"},
      {"sequence": "TAGTATTTATATGATTAACACACATATGGGTATTAA [CACACA_site8363]", "gcPBM binding intensity (ln)": "8.77 ± 0.35"},
      {"sequence": "CATAATAGTTATAAAATACACACCAGGCATGATAAA [CACACA_site329]", "gcPBM binding intensity (ln)": "9 ± 0.4"},
      {"sequence": "AAAAAAAAAAAAAAAAGTACTCAATAATAATTACAT [XGTACX_site670]", "gcPBM binding intensity (ln)": "8.5 ± 0.4"},
      {"sequence": "ATAATGTTCACATAGGTGCACTAATATAATTATCCA [GTGCAC_site9981]", "gcPBM binding intensity (ln)": "8.83 ± 0.38"},
      {"sequence": "ATATACACCTGAGAGGTGCATATATATAAAATTTAC", "gcPBM binding intensity (ln)": "8.7 ± 0.42"},
      {"sequence": "AAAGTAAAAGGGTTTGGTACACATATAATATATTAG [XGTACX_site6036]", "gcPBM binding intensity (ln)": "8.79 ± 0.52"},
      {"sequence": "CATTTATATAAAGAATGTACACACAGAAATGCACAC [XGTACX_site4718]", "gcPBM binding intensity (ln)": "9.51 ± 0.22"},
      {"sequence": "AGTAAAAGAAAGCACACACACATGTATTTATGTATG [CACACA_site5998]", "gcPBM binding intensity (ln)": "9.71 ± 0.42"},
      {"sequence": "ATAACTTTTATTTGTACACACATACATCTATATTAT [CACACA_site6595]", "gcPBM binding intensity (ln)": "9.4 ± 0.41"},
      {"sequence": "GTAATTTTTTTCTATACACACATATATATAATATAT [CACACA_site2655]", "gcPBM binding intensity (ln)": "9.03 ± 0.38"},
      {"sequence": "AATATAAATATAAATATAAATAAATAAATAAATAAA [CACACA_negctrl_site291]", "gcPBM binding intensity (ln)": "8.67 ± 0.55"},
      {"sequence": "CATTATTATTTTATAACACACACATATATATTATAT [CACACA_site8405]", "gcPBM binding intensity (ln)": "9.21 ± 0.31"},
      {"sequence": "ATGTTTTTTATTCTTCGTACGTATGAACGATAGTGT [XGTACX_site4225]", "gcPBM binding intensity (ln)": "9.02 ± 0.36"},
      {"sequence": "AAACGTATGTTATTTACACACCCTTCCACTTTTATA [CACACA_site3337]", "gcPBM binding intensity (ln)": "9.02 ± 0.44"},
      {"sequence": "TATAAAATAAGACATGCATGTTATACATATATATTT [TGCATGCA_site156]", "gcPBM binding intensity (ln)": "9.03 ± 0.45"},
      {"sequence": "TTTTTTTTTTCTACAAGTACATATTTTCATTTAACA [XGTACX_site6621]", "gcPBM binding intensity (ln)": "8.49 ± 0.47"},
      {"sequence": "AAATTAAAAAAAAATAAATAAAAAAAAAAAAAAAAT [CACACA_negctrl_site1611]", "gcPBM binding intensity (ln)": "8.58 ± 0.61"},
      {"sequence": "AAAAAAAAAAAAAAATGTACATATATATATTATAAA [XGTACX_site518]", "gcPBM binding intensity (ln)": "8.63 ± 0.52"},
      {"sequence": "ATGTGCAAATATTAAAGTACTAAATTTTATTATTTT [XGTACX_site7306]", "gcPBM binding intensity (ln)": "8.79 ± 0.46"},
      {"sequence": "ATAAATACATATAAAAGTACACACACACACATATAT [XGTACX_site1744]", "gcPBM binding intensity (ln)": "10.03 ± 0.064"},
      {"sequence": "TGAAATTTCAATACATGTACATATAAAAAAAAAAAA [XGTACX_site4424]", "gcPBM binding intensity (ln)": "8.79 ± 0.41"},
      {"sequence": "TGTATATGTGAAGCAAGGGATGCGGCAGACATAACA [CACACA_negctrl_site1339]", "gcPBM binding intensity (ln)": "9.21 ± 0.4"},
      {"sequence": "GGGTATATATTATTATGTACACATGTATAAAATAAG [XGTACX_site2633]", "gcPBM binding intensity (ln)": "8.8 ± 0.52"},
      {"sequence": "CAGATAGACTTATATGCATGCATTCACCTGCCAACA [TGCATGCA_site158]", "gcPBM binding intensity (ln)": "8.99 ± 0.5"},
      {"sequence": "ATATTACATAATATATGTACACACGCAAATACTTAT [XGTACX_site671]", "gcPBM binding intensity (ln)": "9.2 ± 0.31"},
      {"sequence": "ATGAAATTATATTGGGGTACGTCAAAAAAGGAGATA [XGTACX_site7451]", "gcPBM binding intensity (ln)": "8.83 ± 0.49"},
      {"sequence": "TAAGCATAAATGTATACATGCGATGCATACACATAT [TGCATGCA_site749]", "gcPBM binding intensity (ln)": "8.82 ± 0.4"},
      {"sequence": "TTTGTGTATATATAATGTACATTATATTTTTATTAT [XGTACX_site6506]", "gcPBM binding intensity (ln)": "8.95 ± 0.42"},
      {"sequence": "TATAAATTTATAAATAGTACATATATTTATATATAT [XGTACX_site6433]", "gcPBM binding intensity (ln)": "8.55 ± 0.45"},
      {"sequence": "ATTAAAAAAAAAGAGCGTACAAATAATTACTTCTTT [XGTACX_site8262]", "gcPBM binding intensity (ln)": "8.55 ± 0.54"},
      {"sequence": "AAAAAAAATATACATACATGCATACATAAGTTTCTA [TGCATGCA_site998]", "gcPBM binding intensity (ln)": "8.73 ± 0.52"},
      {"sequence": "TATATATATGGACACACACACACATATATATATATA [CACACA_site6121]", "gcPBM binding intensity (ln)": "10.3 ± 0.23"},
      {"sequence": "ATATTAAGAATAAACAGTACATATAATAAATACCAT [XGTACX_site5933]", "gcPBM binding intensity (ln)": "9.03 ± 0.46"},
      {"sequence": "AAAAAAAAAAAAATTACACACATACATATAATAATA [CACACA_site8680]", "gcPBM binding intensity (ln)": "8.91 ± 0.35"},
      {"sequence": "AAAAAAAAAAGAAACACACACATTTGTATTTAATAT [CACACA_site5184]", "gcPBM binding intensity (ln)": "9.21 ± 0.37"},
      {"sequence": "GTGATTTAATTGTGTTGTACATATTTATAAATAAAA [XGTACX_site8966]", "gcPBM binding intensity (ln)": "8.46 ± 0.32"},
      {"sequence": "GTACAGATAAATATTACACACATTTTCATTTTTAAC [CACACA_site5140]", "gcPBM binding intensity (ln)": "8.97 ± 0.37"},
      {"sequence": "AAAAAGAAAAAACGAAGTACAATTATAAGATTATAT [XGTACX_site410]", "gcPBM binding intensity (ln)": "8.86 ± 0.47"},
      {"sequence": "TTGTTCTTTTTTTTTTTATTTTTTAATTTGAAAAGA [CACACA_negctrl_site209]", "gcPBM binding intensity (ln)": "8.21 ± 0.43"},
      {"sequence": "TATGAAAAATATCTTTGTACTTAGAAATATATACAC [XGTACX_site5393]", "gcPBM binding intensity (ln)": "8.46 ± 0.44"}
    ]}
  ]
}
